Measurements published in patent US20230192841A1 (NANJING LEGEND BIOTECH, published 2023).

Tests used:
human Claudin18.1 [1] = target: T1, human Claudin18.1 (human, UniProt P56856 1-261); test: flow cytometry on PANC1.huCLDN18.1.Luc cells, Binding %
T1 construct: whole, on cells; expressed on PANC1 cells (PANC1.huCLDN18.1.Luc); also called huCLDN18.1; CLDN18.1
Protocol: (§1) Briefly, 5.0×10⁵ PANC1.huCLDN18.1.Luc or PANC1.huCLDN18.2.Luc cells in DPBS (pH7.2) were incubated with serially diluted anti-Claudin18.2 VHH-hIgG1Fc at 4° C. for 45 min, followed by wash-centrifugation-supernatant depletion-cell washing cycles for 3 times with DPBS. After wash, cell pellets were re-suspended in DPBS and incubated with a secondary antibody (1:200, Alexa Fluor™ 488 GOAT anti-human IgG (H+L) Antibody, Invitrogen, Cat. No. A1 1013) at 4° C. for 30 min in dark. The cells were then subject to wash-centrifugation-supernatant depletion-cell washing cycles for 3 times with DPBS. The cells were then run on Attune NXT flow cytometry to detect antibody-PANC1.huCLDN18.1.Luc or PANC1.huCLDN18.2.Luc binding level. Binding capabilities of each test antibody were described as Percentage of Binding, calculated with (cells with antibody binding/total cells)× 100 %.

human Claudin18.2 [2] = target: T2, human Claudin18.2 (human, UniProt P56856-2 1-261); test: flow cytometry, PANC1.huCLDN18.2.Luc cells, at 10 nM
T2 construct: whole, on cells; expressed on Dubca, HEK293T, PANC1 cells by lentiviral transduction; endogenous on NUGC4 and KATOIII cells; also called huCLDN18.2; CLDN18.2
Protocol: as §1

human Claudin18.2 [3] = target: T2, human Claudin18.2; test: flow cytometry, PANC1.huCLDN18.2.Luc cells, percentage of binding
Protocol: as §1

human Claudin18.1 [4] = target: T1, human Claudin18.1; test: flow cytometry on PANC1.huCLDN18.1.Luc cells, Binding %; remark: listed apart in the source
Protocol: as §1
(§2) Coding sequence of selected clones of humanized single domain antibody were codon optimized for human codon biased expression with GenScript OptimumGene™-Codon Optimization. The resulting coding DNA fragments were synthesized and fused to nucleotides nucleotide coding human IgG1 Fc portion (SEQ ID NO:76), for transient expression in chimeric formats. […] The humanized chimeric anti-Claudin18.2 antibodies were obtained using the mothed described in Example 2. The binding capacity of humanized chimeric antibodies to PANC1.huCLDN18.1.Luc or PANC1.huCLDN18.2.Luc cells were measured.

human Claudin18.2 [5] = target: T2, human Claudin18.2; test: flow cytometry, PANC1.huCLDN18.2.Luc cells (Example 7)
Protocol: as §1, §2

human Claudin18.1 [6] = target: T1, human Claudin18.1; test: flow cytometry on PANC1.huCLDN18.1.Luc cells, Binding %; remark: listed apart in the source
human Claudin18.1 [7] = target: T1, human Claudin18.1; test: as above; remark: listed apart in the source

Binder | binding result (human Claudin18.1 [1]) | maximum binding% (human Claudin18.2 [2]) [%] | EC50 (human Claudin18.2 [3]) [nM] | binding result (human Claudin18.1 [4]) | EC50 (human Claudin18.2 [5]) [nM] | binding result (human Claudin18.1 [6]) | binding result (human Claudin18.1 [7])
VHH182503-hIgG1Fc (Fc fusion, chimeric antibody: camelid VHH fused to human IgG1 Fc) EVQLVESGGGSVQAGGSLRLSCVASGTIYSAYYMGWFRQPPGKEHEGVATVIPGGTQTYYADSVKGRFTMSRDNAKNTVYLQMNSLKPEDTGMYYCAATYLVGSAPLSPSRFRYWGQGTQVTVSS[in this place human IgG1 Fc] | no binding (tested: about 300 nM) | ~100 | 2.16 | – | – | – | –
VHH182507-hIgG1Fc (Fc fusion, chimeric antibody: camelid VHH fused to human IgG1 Fc) QVQLAESGGGSVQAGGSLKLICTASRATDCNYMSWHRQAPGKEREFVSRIFPSGKTTYADSMKARFSISQDNAKNSVYLLMVNLKPEDTGKYYCQGSCRGPGSIWPSDYWGQGTQVTVSS[in this place human IgG1 Fc] | no binding (tested: about 300 nM) | ~100 | 3.96 | – | – | – | –
VHH182513H4-hIgG1Fc (Fc fusion, humanized VHH fused to human IgG1 Fc) QVQLVESGGGVVQPGRSLRLSCAASGYRSSVCMGWFRQAPGKGLERVAVIGRDGSTTYIDSVKGRFTISRDSAKNTLYLQMNSLRAEDTAMYYCAAGLGYWACEYNYWGQGTLVTVSS[in this place human IgG1 Fc] | – | – | – | no binding (tested: about 3000 nM) | 14.1 | – | –
VHH182513H10-hIgG1Fc (Fc fusion, humanized VHH fused to human IgG1 Fc) QVQLVESGGGVVQPGRSLRLSCAASGYRSSVCMGWFRQAPGKGLERVAVIGRDGSTTYIDSVKGRFTISRDNSKNTLYLQMNSLRAEDTAVYYCARGLGYWACEYNYWGQGTLVTVSS[in this place human IgG1 Fc] | – | – | – | no binding (tested: about 3000 nM) | 5.03 | – | –
VHH182513-hIgG1Fc (Fc fusion, chimeric antibody: camelid VHH fused to human IgG1 Fc) QVQLEESGGGSVQVGGSLRLSCAASGYRSSVCMGWFRQAPGKERERVAVIGRDGSTTYIDSVKGRFTISRDSAKNTLSLQMDNLKPEDTAMYSCAAGLGYWACEYNYWGQGTQVTVSS[in this place human IgG1 Fc] | no binding (tested: about 1000 nM) | ~100 | 6.13 | – | 5.73 | – | –
VHH182513H7-hIgG1Fc (Fc fusion, humanized VHH fused to human IgG1 Fc) QVQLEESGGGSVQVGGSLRLSCAASGYRSSVCMGWVRQAPGKGLEWVAVIGRDGSTTYIDSVKGRFTISRDSAKNTLSLQMDNLKPEDTAMYSCAAGLGYWACEYNYWGQGTQVTVSS[in this place human IgG1 Fc] | – | – | – | no binding (tested: about 3000 nM) | 12.7 | – | –
VHH182505-hIgG1Fc (Fc fusion, chimeric antibody: camelid VHH fused to human IgG1 Fc) QVQLVESGGGSVQVGGSLRLSCAASGYRASVCMGWFRQAPGKERERVALIGRTGSTTYIDSVKGRFTISRDSAKNTLSLQMDNLKPEDTAMYSCAAGLGYWDCDYNYWGQGTQVTVSS[in this place human IgG1 Fc] | no binding (tested: about 300 nM) | ~100 | 3.45 | – | – | – | –
175DX-hIgG1Fc (Fc fusion, scFv of IMAB362 (zolbetuximab) fused to human IgG1 Fc; also called benchmark; control antibody) DIVMTQSPSSLTVTAGEKVTMSCKSSQSLLNSGNQKNYLTWYQQKPGQPPKLLIYWASTRESGVPDRFTGSGSGTDFTLTISSVQAEDLAVYYCQNDYSYPFTFGSGTKLEIKGSTSGSGKPGSGEGSTKGQVQLQQPGAELVRPGASVKLSCKASGYTFTSYWINWVKQRPGQGLEWIGNIYPSDSYTNYNQKFKDKATLTVDKSSSTAYMQLSSPTSEDSAVYYCTRSWRGNSFDYWGQGTTLTVSS[in this place human IgG1 Fc] | – | – | 13.5 | – | 49.2 | – | –
VHH182511H6-hIgG1Fc (Fc fusion, humanized VHH fused to human IgG1 Fc) QVQLDESGGGLVQPGGSLRLSCAASRSTYCMGWFRQAPGKGLERVANVYMRNGDTWLADSVKGRFTISRDNSKNTLYLQMTSLRAEDTAVYYCAAGRSSCLEASISYWGQGTLVTVSS[in this place human IgG1 Fc] | – | – | – | no binding (tested: about 100 nM) | 0.83 | – | –
VHH182501-hIgG1Fc (Fc fusion, chimeric antibody: camelid VHH fused to human IgG1 Fc) EVQLVESGGGSVQAGGSLRLSCAASGYTTSRYGMTWYRQAPAKEREFVSSISISGSTEYADSVKGRFTISHDNVKKTVYLQMNSLKPEDTAMYYCSFYNAYTQYWGQGTQVTVSS[in this place human IgG1 Fc] | no binding (tested: about 300 nM) | ~100 | 2.33 | – | – | – | –

More lines, now with the values ahead:

binding result (human Claudin18.1 [1]) | maximum binding% (human Claudin18.2 [2]) [%] | EC50 (human Claudin18.2 [3]) [nM] | binding result (human Claudin18.1 [4]) | EC50 (human Claudin18.2 [5]) [nM] | binding result (human Claudin18.1 [6]) | binding result (human Claudin18.1 [7]) | Binder
no binding (tested: about 300 nM) | ~100 | 2.82 | – | – | – | – | VHH182502-hIgG1Fc (Fc fusion, chimeric antibody: camelid VHH fused to human IgG1 Fc) EVQLVESGGGSVQPGGSLSLSCAASGDTFRAKCMAWFRQGPGKEREVVATIQSGYYRPYYTDSVKGRFTISQDADKNRVYLQMDSLKPEDTAMYYCAADRFTYPPGVICGGISENYRYWGQGTRVTVSS[in this place human IgG1 Fc]
no binding (tested: about 300 nM) | ~100 | 1.7 | – | – | – | – | VHH182508-hIgG1Fc (Fc fusion, chimeric antibody: camelid VHH fused to human IgG1 Fc) EVQLAESGGGSVQAGGSLRLSCAASRYISSSYCMSWFRQAPGKEREGVAAISTRGGSTYYVDSVKGRFTIFQGNAGATVYLQMNSLKPEDTAMYYCAAAEGLCGWGGWESAVRFGSWGQGTQVTVSS[in this place human IgG1 Fc]
no binding (tested: about 300 nM) | ~100 | 3.92 | – | – | – | – | VHH182506-hIgG1Fc (Fc fusion, chimeric antibody: camelid VHH fused to human IgG1 Fc) QVHLVESGGGSVQAGGSLTLSCVVSGAEYYSGDMNWYRQAPGKEREFVSGINRAGNTNYAASVKGRFSISRDSARTTGYLQMNSLKSEDTAMYYCQGTYCRMALFGACNDYWGQGTQVTVSS[in this place human IgG1 Fc]
– | – | – | – | 2.38 | no binding (tested: about 3000 nM) | – | VHH182513H1-hIgG1Fc (Fc fusion, humanized VHH fused to human IgG1 Fc) QVQLVESGGGLVQPGGSLRLSCAASGYRSSVCMGWFRQAPGKERERVAVIGRDGSTTYIDSVKGRFTISRDSAKNTLSLQMDSLRAEDTAMYSCAAGLGYWACEYNYWGQGTLVTVSS[in this place human IgG1 Fc]
– | – | – | – | 1.42 | – | no binding (tested: about 3000 nM) | VHH182513H9-hIgG1Fc (Fc fusion, humanized VHH fused to human IgG1 Fc) QVQLVESGGGVVQPGRSLRLSCAASGYRSSVCMGWFRQAPGKGLERVAVIGRDGSTTYIDSVKGRFTISRDSAKNTLYLQMNSLRAEDTAVYYCAAGLGYWACEYNYWGQGTLVTVSS[in this place human IgG1 Fc]
no binding (tested: about 300 nM) | ~100 | 3.65 | – | – | – | – | VHH182504-hIgG1Fc (Fc fusion, chimeric antibody: camelid VHH fused to human IgG1 Fc) EVQLVESGGGSVQAGGSLRLSCEVTSYTVRLYCMGWFRQDSEKAREGVAAIDYYGSTTYADSVKGRFTISRDNAKNTLYLQMNSLKPEDSAVYYCASRRTSWCSVSFNGYDDWGQGTQVTVSS[in this place human IgG1 Fc]
no binding (tested: about 1000 nM) | ~100 | 3.24 | – | – | – | – | VHH182510-hIgG1Fc (Fc fusion, chimeric antibody: camelid VHH fused to human IgG1 Fc) QVRLVESGGGSVQVGGSLRLSCAASGYRSSVCMGWFRQAPGKERERVAVIGRDGSTTYIDSVKGRFTISRDSAKNTLSLQMDNLKPEDTAMYSCAAGLGYWACEYDYSGQGTQVTVSS[in this place human IgG1 Fc]
no binding (tested: about 1000 nM) | ~100 | 1.61 | – | 0.328 | – | – | VHH182511-hIgG1Fc (Fc fusion, chimeric antibody: camelid VHH fused to human IgG1 Fc) QVQLDESGGGSVQAGGSLRLSCAASRSTYCMGWFRQAPGKLRERVANVYMRNGDTWLADSVKGRFTISRDNAKNAVYLQMTRLRPEDTAMYYCAAGRSSCLEASISYWGQGTQVTVSS[in this place human IgG1 Fc]
no binding (tested: about 1000 nM) | ~100 | 1.67 | – | – | – | – | VHH182509-hIgG1Fc (Fc fusion, chimeric antibody: camelid VHH fused to human IgG1 Fc) EVQLAESGGGSVQAGGSLRLSCAASGYITSRYGMTWYRQAPAKEREFVSSISLSGSTEYADSVKGRFTISHDNVKKTVYLQMNSLKPEDTAMYYCSFYNAYGQYWGQGIQVTVSS[in this place human IgG1 Fc]

Like-named read-outs stand apart in the source and are kept apart here.
